Results from the supplement of paper PMC11417369.
± gives the standard deviation of the averaged measurements. This is one part of the list.

Each sequence was assayed on PfAP2-LT AP2 domain (GST-tagged) (assay: gcPBM binding intensity (ln(normalized median fluorescence intensity)); higher = stronger DNA binding).
Outline: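 GST-fused DNA-binding domains of P. falciparum, expressed in E. coli, were applied at about 25 μg on average for 1 h to an Agilent 4 × 180k array of primer-extended double-stranded 36-bp intergenic genomic probes and negative controls. Binding intensity is the highest Masliner-normalised natural-log median intensity across replicate spots of either probe orientation, measured with Alexa488 anti-GST antibody and a 488 nm scan.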
With “AAAATGTATTCTCTCATGCACACTTTCTTTAAGGGA [CACACA_site2196]” the “gcPBM binding intensity (ln)” value was 8.67 ± 0.35.
In the case of “ATACACATTCTTCCGACATAATAAGAAAAAGAAAAA [CACACA_negctrl_site9]”, the “gcPBM binding intensity (ln)” value is reported as 8.71 ± 0.4.
With “TGTAGATTTTGTAACACACACATATAAATACCTATA [CACACA_site7183]” the “gcPBM binding intensity (ln)” value was 9.16 ± 0.37.
In the case of “TTATTTATATTTTTTTGTACACATATTGTATACATA [XGTACX_site1178]”, the “gcPBM binding intensity (ln)” value is reported as 8.88 ± 0.5.
“AAACATATATACATATGTACATATATACATATATGT [XGTACX_site5779]” was tested, and the “gcPBM binding intensity (ln)” value was 8.94 ± 0.4.
With “TATAAACCTTTTTGCACGCACACAAAAAAAAAATAA [CACACA_site168]” the “gcPBM binding intensity (ln)” value was 8.99 ± 0.52.
For “TTCGGAAAAATTAAAGCACACAAAAAAAAATAAAAA [CACACA_site8296]”, the “gcPBM binding intensity (ln)” value was 8.75 ± 0.49.
With GACTATAATGTTTTGGTGCGTCATGTTATGGTCATC the “gcPBM binding intensity (ln)” value was 9.13 ± 0.45.
In the case of “GATTAACAACATATTAGTACATATATTATATATATA [XGTACX_site7646]”, the “gcPBM binding intensity (ln)” value is reported as 8.66 ± 0.43.
In the case of “TATTTATATATATGATGTACATAAGGTGTAATGTTA [XGTACX_site5591]”, the “gcPBM binding intensity (ln)” value is reported as 8.78 ± 0.42.
For “TACATGAATATTTATACATGCACACTAAAATAAAGA [TGCATGCA_site611]”, the “gcPBM binding intensity (ln)” value was 8.88 ± 0.4.
With “TATTTACATACAAAATGTACAAAAATATATTTTTTT [XGTACX_site888]” the “gcPBM binding intensity (ln)” value was 8.6 ± 0.38.
For “ATATATATTTAATGTTGTACATAAAAAATATATAAA [XGTACX_site7774]”, the “gcPBM binding intensity (ln)” value was 8.46 ± 0.48.
For “ATCTCTTATATATTCACACACATATATATAATTATA [CACACA_site1502]”, the “gcPBM binding intensity (ln)” value was 9.16 ± 0.35.
In the case of “AAATATAATAACGAACGTACTTATTATAATTTGTAA [XGTACX_site2342]”, the “gcPBM binding intensity (ln)” value is reported as 8.68 ± 0.41.
For “TTATTTTTTTTATATATATGTATAAATATATATATA [XGTACX_negctrl_site441]”, the “gcPBM binding intensity (ln)” value was 8.53 ± 0.44.
For “TTTTGTTTTAATTTTATTTGATTTTATTTGATTTAT [CACACA_negctrl_site692]”, the “gcPBM binding intensity (ln)” value was 8.68 ± 0.49.
“ATATAACATATCAATTGTACGTATTGATAATATATA [XGTACX_site2504]” was tested, and the “gcPBM binding intensity (ln)” value was 8.78 ± 0.35.
With “ATATTTATATGGTTTGCACACATAACAACTATGGTT [CACACA_site3631]” the “gcPBM binding intensity (ln)” value was 9.33 ± 0.38.
“AGGCACACAAACATATGTACACATATATATATATAT [XGTACX_site4723]” was tested, and the “gcPBM binding intensity (ln)” value was 10.21 ± 0.078.
With “TTTATTGAACGTACACATATATATATGTATATATTT [TGCATGCA_negctrl_site141]” the “gcPBM binding intensity (ln)” value was 8.97 ± 0.38.
In the case of “CAAAAGGATATGCACACACACACACGGATATTTATA [CACACA_site7099]”, the “gcPBM binding intensity (ln)” value is reported as 10 ± 0.28.
In the case of TTTTGTTATTAGAGGGTGCTTATAATGAACTCCTAC, the “gcPBM binding intensity (ln)” value is reported as 8.65 ± 0.49.
In the case of ATTACATTAATAAGAGTGCATTATATAAGTTTTATG, the “gcPBM binding intensity (ln)” value is reported as 8.52 ± 0.45.
With AAAAAAAAAAATCCAGTGCATATATTTTTTACATAT the “gcPBM binding intensity (ln)” value was 8.64 ± 0.45.
For “TCAATCATCTTATATAGTACACATAAAAGTATTATA [XGTACX_site8513]”, the “gcPBM binding intensity (ln)” value was 8.48 ± 0.33.
With “GACAAAATGATAGGGACACACAATATCAATGTTTAA [CACACA_site765]” the “gcPBM binding intensity (ln)” value was 9.05 ± 0.55.
In the case of “CCACTAATAAATATTACACACATATAGATTTATATT [CACACA_site7465]”, the “gcPBM binding intensity (ln)” value is reported as 9.01 ± 0.31.
With “AAAAAAAAAAATTACACACATACATATAATAATAAT [CACACA_site2193]” the “gcPBM binding intensity (ln)” value was 9.06 ± 0.4.
“CGTATATATATATACACACACATATATATATGTAAA [CACACA_site195]” was tested, and the “gcPBM binding intensity (ln)” value was 9.3 ± 0.3.
For “TATTTCCATTCATAATTTTGTAGAATATATAACCGT [CACACA_negctrl_site1531]”, the “gcPBM binding intensity (ln)” value was 8.55 ± 0.49.
In the case of “AAAAACTTAATATTCACACATATATATATATATATA [CACACA_site5240]”, the “gcPBM binding intensity (ln)” value is reported as 9.71 ± 0.15.
“TACGTTCTAATATATACACACCTGGTATTAATTATG [CACACA_site5260]” was tested, and the “gcPBM binding intensity (ln)” value was 9.04 ± 0.42.
“AAATATTATTTATTTACACACCAATCTTCTTTTCTT [CACACA_site3990]” was tested, and the “gcPBM binding intensity (ln)” value was 8.95 ± 0.5.
For “GAAAAATTTTTATATGTGCACATGTTATATATAATT [GTGCAC_site9742]”, the “gcPBM binding intensity (ln)” value was 8.9 ± 0.3.
For “TTTTATTATTAATTTCTTTTTTCTCATCACTTTCAA [XGTACX_negctrl_site117]”, the “gcPBM binding intensity (ln)” value was 8.51 ± 0.65.
For “TTTACAAAAAATTATACACACACGTACATATAAATA [CACACA_site945]”, the “gcPBM binding intensity (ln)” value was 9.12 ± 0.33.
For “ATATATATAAAATATACACACATACTGTTCATTTAA [CACACA_site6149]”, the “gcPBM binding intensity (ln)” value was 8.98 ± 0.4.
“TAATTTATGAGTAATACACACACTTGTGGATATATT [CACACA_site3790]” was tested, and the “gcPBM binding intensity (ln)” value was 8.98 ± 0.37.
With “AAATAAAAAAAGAAACGTACATATATTGGTTTCGTC [XGTACX_site3510]” the “gcPBM binding intensity (ln)” value was 8.79 ± 0.4.
With “TAATGTAAAATTTAGAGTACATAAAAAATTGGATGA [XGTACX_site7225]” the “gcPBM binding intensity (ln)” value was 8.69 ± 0.4.
With “AAACTATAATATATTACACACATATATTTTATAAGT [CACACA_site6460]” the “gcPBM binding intensity (ln)” value was 9.02 ± 0.3.
For “AATTGAATTTTAAAAGAAAAAAAAAAAAAAAAATAA [XGTACX_negctrl_site195]”, the “gcPBM binding intensity (ln)” value was 8.12 ± 0.57.
“GGAATAGTAATATATACACACAAATACAGATATATA [CACACA_site4213]” was tested, and the “gcPBM binding intensity (ln)” value was 9.3 ± 0.45.
“TGGAGGTCAGTTCACAGTACCCAGAAACTCTACGGA [XGTACX_site4927]” was tested, and the “gcPBM binding intensity (ln)” value was 8.57 ± 0.35.
